Assay results as given in the RNAGym collection of RNA variant scans (doi:10.7554/elife.90254).
Read counts are not given, so values of variants with three or more changes are uncertain.

B1: OR4K15 (parent)
chain: GUUAACGGUCAUAGGCCAUGGAAACUAGGAGCACCAUUUCGCUGCCAGUGAAGAAAUGAACAAAGAAAAUCUGGGCCAGGCAGGCAUCAAAAGAAAUAGUCUUGCGCUCAACCAGAAAGUCUGUAAUCAUUUUAAGGGUA

Variants of: B1
Assay: self-cleavage, relative activity (ratio to wild type); higher = more cleavage; in vitro, sequencing; the parent is a self-cleaving ribozyme

| Variant | self-cleavage |
| --- | --- |
| GUUAACGGUCAUAGGCCAUGGAAACUAGGAGCACCAUUUCGCUGCCAGUUAAGAAAUGAACAAAGAAAAUCUGGGCCAGGCAGGCAUCAAAAGAAAUAGUCUUGCGCUCAACCAGAAAGUCUGUAGUCAUUUUAAGGGGA [G50U A126G U139G] | 1.31 |
| GUUAACGGUCAUAGGCCAUGGAAACUAGGAGCACCAUUUCGCUGCCAGUGGAGAAAUGGACAAAGAAAAUCUGGGCCAGGCAGGCAUCAAAGGAAAUAGUCUUGCGCUCAACCAGAAAGUCUGCAAUCAUUUCAAGGGUA [A51G A59G A92G U124C U133C] | 1 |
| GUUAACGGUCAUAGGCCAUGGAAACUAGGAGCACCAUUUCGCUGCCAGUGGAGAAAUGGACAAAGAAAAUCUGGGCCAGGCAGGCAUCAAAAGAGAUAGUCUUGCGCUCAACCAGAAAGUCUGUAAUCAUUUUAAGGGUA [A51G A59G A95G] | 0.51 |
| GUUAACGGUCAUAGGCCAUGGAAACUAGGAGCACCAUUUCGCUGCCAGUUAAGAAAUGAACGAAGAAAAUCUGGGCCAGGCAGGCAUCAAAAGAAAUAGUCUUGCGCUCAACCAGAAAGUCUGUAAUCGUUUUAAGGGUA [G50U A62G A129G] | 1.03 |
| GUUAACGGUCAUAGGCCAUGGAAACUAGGAGCACCAUUUCGCUGCCAGUGGAGAAAUGAGCAAAGAAAAUCUGGGCCAGGCAGGCAUCAAAAGGAAUAGUCUUGCGCUCAACCAGAGGGUCUGUAAUCAUUUUAAGGGUA [A51G A60G A94G A117G A118G] | 1.44 |
| GUUAACGGUCAUAGGCCAUGGAAACUAGGAGCACCAUUUCGCUGCCAGUGGAGAAAUGAACGAAGAAAAUCUGGGCCAGGCAGGCAUCAAAAGAAAUAGUCUUGCGCUCAACCAGGAAGUCUGUAAUCAUUUUAAGGGUA [A51G A62G A116G] | 0.47 |
| GUUAACGGUCAUAGGCCAUGGAAACUAGGAGCACCAUUUCGCUGCCAGUGGAGGAAUGAACAAAGAAAAUCUGGGCCAGGCAGGCAUCAAAAGAAAUAGUCAUGCGCUCAACCAGAAAGUCUGUAAUCAUUUUAAGGGUA [A51G A54G U102A] | 1.58 |
| GUUAACGGUCAUAGGCCAUGGAAACUAGGAGCACCAUUUCGCUGCCAGUGGAGAAAUGAACGAAGAAAAUCCGGGCCAGGCAGGCAUCAAAAGAAAUAGUCUUGCGCUCAACCAGAAAGUCUGUGAUCAUUUUAAGGGUA [A51G A62G U72C A125G] | 0.15 |
| GUUAACGGUCAUAGGCCAUGGAAACUAGGAGCACCAUUUCGCUGCCAGUGGGGAAAUGAACAAAGAUAAUCUGGGCCAGGCAGGCAUCAAAAGAAAUAGUCUUGCGCCCAACCAGAAAGUCUGUAAUCAUUUUAAGGGUA [A51G A52G A67U U108C] | 0.06 |
| GUUAACGGUCAUAGGCCAUGGAAACUAGGAGCACCAUUUCGCUGCCAGUGGAGCAAUGAGCAAAGAAAAUCUGGGCCAGGCAGGCAUCAAAAGAAAUAGUCUUGCGCUCAACCAGAAUGUCCGUGAUCAUUUUAAGGGUA [A51G A54C A60G A118U U122C A125G] | 0.39 |
| GUUAACGGUCAUAGGCCAUGGAAACUAGGAGCACCAUUUCGCUGCCAGUGGUGAAACGAACAAAGAAAAUCUGGGCCAGGCAGGCAUCAAAAGAAAUAGUCUUGCGCCCAACCAGAUAGUCUGUAAUCAUUUUAAGGGUA [A51G A52U U57C U108C A117U] | 0.01 |
| GUUAACGGUCAUAGGCCAUGGAAACUAGGAGCACCAUUUCGCUGCCAGUGGAGAUAUGAACUAAGAAAAUCUGGGCCAGGCAGGCAUCAAAAGAAAUAGUCUUGCGCUCAACCAGAAAGUCUGUAAUCAUUUUAAGGGCA [A51G A55U A62U U139C] | 1.63 |
| GUUAACGGUCAUAGGCCAUGGAAACUAGGAGCACCAUUUCGCUGCCAGUGGAGAAAUGUACAAAGAAAAUCUGGGCCAGGCAGGCAUAAAAAGAAAUAGUCUUGCGCUCAACCAGUAAGUCUGUAAUCAUUUUAAGGGUA [A51G A59U C88A A116U] | 0.1 |
| GUUAACGGUCAUAGGCCAUGGAAACUAGGAGCACCAUUUCGCUGCCAGUGGAGAAAUGGACAAAGAAAAUCUGGGCCUGGCAGGCACCAAAAGAAAUAGUCAUGCGCUCAACCAGAAAGUCUGUAAUCAUUUUAAGGGUG [A51G A59G A78U U87C U102A A140G] | 0.1 |
| GUUAACGGUCAUAGGCCAUGGAAACUAGGAGCACCAUUUCGCUGCCAGUGGAGGAAUGAACUAAGAAAAUCUGGGCCAGGCAGGCAUCAAAAGAAAUAGUCUUGCGCUCAACCAGAAAGUCUGUAAUCAUUUUAAGGGUA [A51G A54G A62U] | 0.95 |
| GUUAACGGUCAUAGGCCAUGGAAACUAGGAGCACCAUUUCGCUGCCAGUGGGGAAAUGAACAAAGAAAAUCUGGGCCAGGCAGGCAUCAAAAGAAAUAGUCUUGCGCUCAACCAGAAAGUCUGCAAUCAUUUUAAGGGUA [A51G A52G U124C] | 0.7 |
| GUUAACGGUCAUAGGCCAUGGAAACUAGGAGCACCAUUUCGCUGCCAGUGGAGAAAUGAGCAAAGAAAAUCUGGGCCAGGCAGGCGUCAAAAGAAAUAGUCCUGCGCUCAACCAGAAAGUCUGUAAUCAUUUUAAGGGUA [A51G A60G A86G U102C] | 1.74 |
| GUUAACGGUCAUAGGCCAUGGAAACUAGGAGCACCAUUUCGCUGCCAGUUAAGAAAUGAACAAAGAAAAUCUGGGCCAGGCAGGCAUCAAAAGAAAUAGUCUUGCGCUCAGCCAGAGAGUCUGUAAUCAUUUUAAGGGUA [G50U A111G A117G] | 0.01 |
| GUUAACGGUCAUAGGCCAUGGAAACUAGGAGCACCAUUUCGCUGCCAGUGCAGAAAUGAACAAAGAAAGUCUGGGCCAGGCAGGCAUCAAAAGAAAUAGUCUUGCGCUCAACCAGAUAGUCUGUAAUCAUUUUAAGGGUA [A51C A69G A117U] | 0.88 |
| GUUAACGGUCAUAGGCCAUGGAAACUAGGAGCACCAUUUCGCUGCCAGUGGGGAAAUGAACAAAGAAAAUCUGGACCAGGCAGGCAUCAAGAGAAAUGGUCUUGCGCCCAACCAGGAAGUCUGUAAUCAUUUUAAGGGUA [A51G A52G G75A A91G A98G U108C A116G] | 0.04 |
